Among the data in article PMC10364419 are binding values, retold here.

The chains behind the UniProt entries cited, without tags or fusion partners. Where a name states a change or a piece, a line headed by the entry shows the natural chain unless it says otherwise.
UniProt O00165: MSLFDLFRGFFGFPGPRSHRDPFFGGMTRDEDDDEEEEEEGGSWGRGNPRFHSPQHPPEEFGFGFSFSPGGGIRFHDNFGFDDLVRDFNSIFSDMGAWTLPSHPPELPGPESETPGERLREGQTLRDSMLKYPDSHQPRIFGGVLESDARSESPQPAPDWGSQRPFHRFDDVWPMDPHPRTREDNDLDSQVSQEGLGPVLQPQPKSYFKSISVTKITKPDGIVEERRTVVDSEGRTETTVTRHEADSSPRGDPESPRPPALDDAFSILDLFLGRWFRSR
UniProt P46940: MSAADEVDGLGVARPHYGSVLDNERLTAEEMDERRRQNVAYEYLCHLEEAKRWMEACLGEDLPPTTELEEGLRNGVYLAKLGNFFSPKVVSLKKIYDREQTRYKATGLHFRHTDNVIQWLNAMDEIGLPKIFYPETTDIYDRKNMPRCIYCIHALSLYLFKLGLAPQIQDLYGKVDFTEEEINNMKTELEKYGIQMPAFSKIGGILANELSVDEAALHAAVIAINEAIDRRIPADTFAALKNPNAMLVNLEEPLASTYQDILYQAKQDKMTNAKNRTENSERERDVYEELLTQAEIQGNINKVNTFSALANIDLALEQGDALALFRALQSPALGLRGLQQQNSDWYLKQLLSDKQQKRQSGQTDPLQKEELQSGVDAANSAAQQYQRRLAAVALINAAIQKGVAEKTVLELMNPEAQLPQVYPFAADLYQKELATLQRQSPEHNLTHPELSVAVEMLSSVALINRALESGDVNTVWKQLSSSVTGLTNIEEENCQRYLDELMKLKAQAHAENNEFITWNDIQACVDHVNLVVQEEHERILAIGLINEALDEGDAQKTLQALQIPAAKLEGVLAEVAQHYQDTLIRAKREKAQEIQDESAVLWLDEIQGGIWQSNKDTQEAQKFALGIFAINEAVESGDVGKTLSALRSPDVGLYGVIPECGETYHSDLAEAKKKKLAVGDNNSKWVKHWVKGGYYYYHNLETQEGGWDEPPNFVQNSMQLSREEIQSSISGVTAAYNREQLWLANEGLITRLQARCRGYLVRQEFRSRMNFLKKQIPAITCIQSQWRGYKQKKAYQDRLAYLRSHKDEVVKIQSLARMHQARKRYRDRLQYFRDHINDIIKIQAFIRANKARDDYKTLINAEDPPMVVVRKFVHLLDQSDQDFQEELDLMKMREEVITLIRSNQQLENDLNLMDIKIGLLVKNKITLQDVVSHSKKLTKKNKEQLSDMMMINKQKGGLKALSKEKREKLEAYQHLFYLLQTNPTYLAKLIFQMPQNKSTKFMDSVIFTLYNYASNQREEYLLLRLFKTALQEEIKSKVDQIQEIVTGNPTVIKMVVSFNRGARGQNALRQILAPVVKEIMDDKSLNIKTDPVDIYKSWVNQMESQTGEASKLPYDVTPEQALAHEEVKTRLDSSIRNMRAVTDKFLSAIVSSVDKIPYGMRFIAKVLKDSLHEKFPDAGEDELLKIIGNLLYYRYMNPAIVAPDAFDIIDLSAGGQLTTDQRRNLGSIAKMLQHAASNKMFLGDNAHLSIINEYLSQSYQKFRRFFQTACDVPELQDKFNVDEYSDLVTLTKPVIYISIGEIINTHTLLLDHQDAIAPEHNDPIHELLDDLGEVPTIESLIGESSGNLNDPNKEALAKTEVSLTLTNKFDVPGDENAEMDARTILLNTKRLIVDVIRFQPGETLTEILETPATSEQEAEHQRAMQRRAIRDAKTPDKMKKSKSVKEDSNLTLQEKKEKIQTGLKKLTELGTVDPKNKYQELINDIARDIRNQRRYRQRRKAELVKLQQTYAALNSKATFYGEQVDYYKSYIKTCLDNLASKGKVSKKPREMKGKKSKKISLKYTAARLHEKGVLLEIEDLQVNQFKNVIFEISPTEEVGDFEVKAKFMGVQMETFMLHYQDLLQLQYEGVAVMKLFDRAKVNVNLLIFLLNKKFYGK

Results are given in words; binding and its absence hold for the method and conditions named. Binding seen in cells or lysates may run through a third protein. Some binding calls cover weakened binding; strength is not graded here.

The first assay deals with HA-Hax1 (UniProt O00165). Kind of assay: co-IP; HEK293T cells transfected with Myc- or HA-tagged proteins, NP40 lysis buffer (1% NP40, 20 mM Tris-HCl pH 8.0, 0.8% NaCl, 10% glycerol), HA-agarose beads overnight at 4 °C, immunoblot.
As to “IQGAP1 C-terminal (residues 864-1657) (from UniProt P46940 864-1657) (domain or fragment)”, the binding entry was “binds”.

On to “IQGAP1 GRD domain (residues 1025-1238) (from UniProt P46940 1025-1238) (domain or fragment)”, for which the binding result was “no binding”.

As to “IQGAP1 N-terminal (residues 1-863) (from UniProt P46940 1-863) (domain or fragment)”, the binding entry is given as “no binding”.

For the substance “IQGAP1 RGCT domain (residues 1276-1657) (from UniProt P46940 1276-1657) (domain or fragment)”, the binding entry is given as “binds”.

Consider “Myc-IQGAP1 (pcDNA3-Myc-IQGAP1, full length) (from UniProt P46940 1-1657)”, for which the binding result is “binds”.

The next assay concerns the target Hax1 (endogenous) (human (endogenous in MCF7)) (UniProt O00165). Kind of assay: co-IP; endogenous proteins, Hax1 immunoprecipitates from MCF7 cells, immunoblot for IQGAP1 and Hax1. In general terms: Immunoblotting shows a protein as a band on a membrane.
Turning to “IQGAP1 (endogenous) (from UniProt P46940 1-1657)”, the binding result is “binds”.
